Assay results reported in PubChem BioAssay AID1963576 (National Center for Advancing Translational Sciences (NCATS), 2024).
Among all 46,000 compounds or so, about 60 (0.1%) were called active. Another 3% or so got no clear call; they are omitted. Calls follow the shape of the dose curve; as a rule, active = well fitted inhibition curve with a large enough effect; inconclusive = small, poorly fitted or top-dose-only effect; inactive = no such curve, though single readings can be large or run the other way. The list shows a part of the results.

experiment: Primary qHTS assay for Inhibitors of ovarian cancer metastasis using an organotypic tumor microenvironment (TME) model.; also: nearly all actives have a fitted effect of over 65% in size;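 as to activity change, negative = inhibition: plate controls were DMSO wells for no effect and tomatine positive control wells for full effect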; conditions: SKOV3ip1-GFP adhesion/invasion on 3D omental model, fluorescence; series mostly up to 45.8 µM; activity change, negative = inhibition: at the top concentration
How it was run: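 Adhesion/invasion was scored as fixed GFP-labeled SKOV3ip1 cell counts (488/509 nm), normalized to DMSO and tomatine controls. Cancer cells in serum-free medium, with four compound doses (0.36-46 umol/L), sat 2 hr at RT then 16 hr at 37 C on a 48 hr fibroblast/mesothelial/ECM culture.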

outcome, inactive:
CCOC(=O)N1CCc2c(sc3c2C(=O)NC(c2ccc(C(=O)OC)cc2)N3)C1 (stereo unspecified)
Cc1cnc(=O)[nH]c1SCC(=O)Nc1cc(C(F)(F)F)ccc1Cl
CCOC(=O)c1ccc2c(c1)N(Cc1ccc(F)cc1Cl)C(=O)c1ccccc1S2
Cc1ccc(CNC(=O)CCCN2C(=O)CCn3nc(-c4cccn4C)cc32)cc1
CCCNC(=O)C1CCN(c2nc3ccc(C)cc3[nH]2)CC1
Cc1ccc(C)n1-c1nnc(N2CCCC(C(=O)NCc3cccc(Br)c3)C2)s1 (stereo unspecified)
COc1cccc(NC(=O)N(Cc2cn(C)c3ccccc23)C2CCCCCC2)c1
Cc1ccc(CNC(=O)CCc2c(C)nc3c4c(C)cc(C)nc4nn3c2C)cc1
O=C(Nc1cccc(Cl)c1)C1CCN(S(=O)(=O)Cc2ccccc2)CC1
Cc1cc(F)ccc1NC(=O)C1CCN(S(=O)(=O)c2ccc3c(c2)CCCC(=O)N3)CC1
CCCCOc1cccc(C(=O)N(Cc2ccc(Br)o2)C2CCS(=O)(=O)C2)c1 (stereo unspecified)

Activity change, negative = inhibition, inactive:
CCN(CC)CCOC(=O)c1ccc(NC(=O)c2cc3cc(OC)ccc3oc2=O)cc1 42.4%
COCCNC(=O)CN1C(=O)COc2ccc(S(=O)(=O)N3CCCC3)cc21 -4.62%
Cc1c(Cl)cccc1-n1nc(C)c2c(C)cc(=O)n(CC(=O)N3CCCc4ccccc43)c21 -4.76%
CCOc1cc(C=C2C(=O)N(c3ccccc3)N=C2C)cc(Cl)c1OCC(=O)OC 2.51%
COc1ccc(-c2nc3ccccc3n3c(-c4ccc(OC)cc4)c4c(=O)n(C)c(=O)n(C)c4c23)cc1 -3.96%
CCCOc1ccc(CNC(=O)C2CCN(C(=O)c3sccc3-n3cccc3)CC2)cc1 15.5%
Cc1cc2oc3c(c(=O)c2cc1C)C(c1ccc(C(C)C)cc1)N(c1nc(C)c(C)s1)C3=O (stereo unspecified) -10.3%
COCCNC(=O)CSc1nc(-c2ccccc2)[nH]c1-c1ccc(C)cc1 4.29%
Cc1cccc(CN2CCN(CC(=O)Nc3c(C)cccc3C)S2(=O)=O)c1 -2.88%
COc1cc(CNc2ccc3[nH]c(=O)[nH]c3c2)cc(Br)c1OCc1ccccc1F -9.05%
Cc1cccc(C(=O)Nc2ccc(N3CCC(N4CCCCC4)CC3)c(C(=O)O)c2)c1 -0.902%
Cc1ccc(Cl)cc1NC(=O)CC1Sc2ccccc2NC1=O (stereo unspecified) -7.42%
NC1=NC(c2cc(F)cc(F)c2)n2c(nc3ccccc32)N1 (stereo unspecified) -5.05%
NC(=O)CSc1oc(-c2cccs2)nc1S(=O)(=O)c1ccc(Br)cc1 4.86%
Cc1cccc(C(=O)Nc2ccc(C(=O)OCc3cc(=O)n4c(C)csc4n3)cc2)c1 -5.78%
